From article PMC10691697, “A small molecule exerts selective antiviral activity by targeting the human cytomegalovirus nuclear egress complex” (PLOS Pathogens, 2023)

Legend:
[1] = system: HFF cells; test: in vitro; assay type: cell-based, human; conditions: 6 days, replicates
Experimental: Cytotoxicities of various compounds were determined using a WST-1 assay that measures metabolic activity (Roche), and CC50’s were calculated as described previously.

[2] = system: HCMV expressing GFP (53-F BADGFP); conditions: 6 dpi, replicates

## C=CC(=O)Nc1cccc(Oc2cc(Cl)nc3[nH]ccc23)c1 [GK1]
[1]; 0.40 μM compound
  cytotoxicity on HFF: WST-1 absorbance relative to DMSO vehicle: 100.0000 (2×) and 94.0000
[1]; 0.80 μM compound
  cytotoxicity on HFF: WST-1 absorbance relative to DMSO vehicle: 100.0000
[2]; 0.40 μM compound
  anti-HCMV: number of plaques relative to DMSO vehicle: 57.0000 and 60.0000 and 52.0000
[2]; 0.80 μM compound
  anti-HCMV: number of plaques relative to DMSO vehicle: 52.0000 and 42.0000 and 49.0000

Where “and” joins values, the source holds several entries; their conditions need not be identical. Identical values can stand only once. Like-named read-outs stand apart in the source and are kept apart here.
